This note sets out measurements from the antibiotic and cytotoxicity screens of Wong et al. (2023).

One test concerns HSkMC. The experiment in a line: cytotoxicity call (relative viability < 0.9). The following applies: 10 µM.
The test system of a further test is HepG2. The experiment in a line: cytotoxicity call (relative viability < 0.9). To be noted: 10 µM.
In the next test the test system is S. aureus RN4220. The experiment in a line: growth inhibition call (relative growth <= 0.2). To be noted: 50 µM.

The other results are listed elsewhere or left out.

Turning to `C[C@@H]1CN([C@@H](C)CO)C(=O)Cc2cc(NC(=O)CCC(F)(F)F)ccc2O[C@@H]1CN(C)Cc1ccc(Oc2ccccc2)cc1`, the cytotoxicity call in the test on HSkMC is “inactive”. In the test on HepG2, the cytotoxicity call is “active”. Also, the growth inhibition call in the test on S. aureus RN4220 was “inactive”.
Turning to `COc1ccc(CN(C)C[C@H]2OCCCC[C@H](C)Oc3ccc(NC(=O)Nc4ccccc4)cc3C(=O)N([C@H](C)CO)C[C@@H]2C)cc1`, the cytotoxicity call in the test on HSkMC and in the test on HepG2 was “inactive” in each case. For the same compound, the growth inhibition call in the test on S. aureus RN4220 was “inactive”.
As to `Cc1noc(C)c1NC(=O)N(C)C[C@@H]1OCCCC[C@H](C)Oc2ccc(NS(=O)(=O)c3ccc(Cl)cc3)cc2C(=O)N([C@@H](C)CO)C[C@H]1C`, the cytotoxicity call in the test with HSkMC and in the test on HepG2 was “inactive” each time. Also, in the test with S. aureus RN4220, the growth inhibition call was “inactive”.
Take `C[C@H](CO)N1C[C@H](C)[C@@H](CN(C)Cc2ccc(C(=O)O)cc2)OCCCC[C@H](C)Oc2ccc(NC(=O)Cc3ccccc3)cc2C1=O`: the cytotoxicity call in the test on HSkMC (human skeletal muscle cells) and in the test on HepG2 was “inactive” throughout. The growth inhibition call in the test on S. aureus RN4220 was “inactive”.
Regarding `CNC(=O)[C@H]1O[C@@H](n2cnc3c(NCc4cccc(I)c4)nc(Cl)nc32)[C@H](O)[C@@H]1O`, the cytotoxicity call with HSkMC and in the test with HepG2 was “inactive” in each case. Further, the growth inhibition call with S. aureus RN4220 is “inactive”.
Turning to `COC(=O)C[C@@H]1CC[C@@H]2[C@H](COC[C@H](O)CN2S(=O)(=O)c2cn(C)cn2)O1`, the cytotoxicity call with HSkMC and in the test with HepG2 was “inactive” each time. In addition, in the test with S. aureus RN4220, the growth inhibition call was “inactive”.
Consider `Cc1ccc(S(=O)(=O)Nc2ccc3c(c2)C(=O)N([C@H](C)CO)C[C@H](C)[C@H](CN(C)S(C)(=O)=O)OCCCC[C@@H](C)O3)cc1`, for which the cytotoxicity call with HSkMC and with HepG2 was “inactive” each time. Moreover, the growth inhibition call with S. aureus RN4220 was “inactive”.
For the compound `Cc1ccc(S(=O)(=O)N2C[C@H](O)COC[C@@H]3O[C@@H](CC(=O)N4CCc5ccccc5C4)CC[C@H]32)cc1`, the cytotoxicity call in the test with HSkMC and in the test with HepG2 was “inactive” throughout. In the test with S. aureus RN4220, the growth inhibition call is “inactive”.
Turning to `COc1ccc(NC(=O)Nc2ccc3c(c2)C(=O)N([C@@H](C)CO)C[C@@H](C)[C@@H](CN(C)CC2CCCCC2)O3)cc1`, the cytotoxicity call in the test with HSkMC and in the test with HepG2 was “inactive” in each case. Further, in the test on S. aureus RN4220, the growth inhibition call is “inactive”.
